These results are taken from patent publication US12440573B2, “Antibody-conjugates for targeting of tumours expressing PTK7” (Synaffix B.V., priority 2022, dated 2025).

Data set [1] in a line: Stability of ADCs in human plasma (DAR by RP-UPLC). It is filed as in vitro ADME. Conditions: 0.1 mg/mL, 37° C.; for DAR t = 0: isolated with protA agarose resin. As for the experimental part: (§1) General procedure for analytical RP-UPLC (DTT treated samples): Prior to RP-UPLC analysis, IgG (10 μL, 1 mg/mL in PBS pH 7.4) was added to 12.5 mM DTT, 100 mM TrisHCl pH 8.0 (40 μL) and incubated for 15 minutes at 37° C. The reaction was quenched by adding 49% acetonitrile, 49% water, 2% formic acid (50 μL). RP-UPLC analysis was performed on a Waters Acquity UPLC-SQD. The sample (5 μL) was injected with 0.4 mL/min onto Bioresolve RP mAb 2.1*150 mm 2.7 μm (Waters) with a column temperature of 70° C. A linear gradient was applied in 9 minutes from 30 to 54% acetonitrile in 0.1% TFA and water. Absorbance of eluted peaks was measured at 215 nm followed by automated integration (MassLynx, Waters) to determine reaction conversion.
(§2) Stability of ADCs in mice and human plasma was tested. Prior to the assay, the plasma was depleted from all IgG using CaptivA® Protein A agarose (1 mL agarose/mL serum). ADCs were added to the depleted human/mouse serum to a final concentration of 0.1 mg/mL followed by incubation at 37° C. At each time point, 0.5 mL was snap frozen and stored at −80° C. until further analysis. To isolate the ADCs after incubation, 20 μl CaptivA® Protein A agarose resin was added to the samples and incubated for 1 hour at room temperature. The resin was washed three times with PBS and subsequently 0.1 M Glycine-HCl pH 2.7 (0.4 mL) was added to elute the ADCs. After elution, the samples were immediately neutralized with 1.0 M Tris pH 8.0 (0.1 mL). The samples were spin-filtered against PBS for three times using Amicon Ultra spin-filter 0.5 mL MWCO 10 kDa (Merck Millipore) and the volume was reduced to 40 μL, yielding a final ADC concentration of approximately 1 mg/mL. Samples were analyzed on RP-UPLC (DTT reduced) to determine the DAR, tables below.

Data set [2] can be described thus: Stability of ADCs in mice plasma (DAR by RP-UPLC). Conditions: 0.1 mg/mL, 37° C.; for DAR t = 0: isolated with protA agarose resin. The format is in vitro ADME. The procedure:
as §1, §2

Data set [3] has as its system A431 (PTK7+, ATCC CRL-1555) cells. The data set is described as follows: In vitro cytotoxicity, resazurin viability. The format is cell-based. The settings on record: 5 days incubation. As for the experimental part:
A431 (PTK7+, ATCC CRL-1555) cells were plated in 96-well plates (10000 cells in 150 μL/well) in DMEM (ATCC) supplemented with 10% fetal bovine serum (FBS) (Invitrogen) and incubated overnight in a humidified atmosphere at 37° C. and 5% CO2. ADCs were added in triplo in a square root of 10 dilution series to obtain a final concentration ranging from 100 nM-0.01 nM. The cells were incubated for 5 days in a humidified atmosphere at 37° C. and 5% CO2. The culture medium was replaced by 0.01 mg/mL resazurin (Sigma Aldrich) in DMEM supplemented with 10% FBS (200 μL/well). After approximately 4 hours in a humidified atmosphere at 37° C. and 5% CO2 the fluorescence was detected with a fluorescence plate reader (Infinite® M1000 Tecan) at 560 nm excitation and 590 nm emission. The relative fluorescent units (RFU) were normalized to cell viability percentage by setting wells without cells at 0% viability and wells with untreated cells at 100% viability (see FIG. 9). IC50 values for ADCs on A431 cells were calculated by non-linear regression using Graphpad prism software and are shown in the table below: […]
(Alamar Blue is a resazurin reagent that responds to reducing activity.)

Data set [4] deals with PTK7 expressing NCl—H446 tumor model. As to the kind of experiment: In vivo efficacy study, NCl—H446 xenograft (Example 30). The settings on record: single IV dose; cofetuzumab-3 2.59, 5.18, 10.36 mg/kg; cofetuzumab-5b 2.59, 5.18 mg/kg; cofetuzumab-Aur0101 2.33 mg/kg; up to t=44 days. Further details: species or system BALB/c nude mice. As for the experimental part:
(§3) NCl—H446, lung cancer xenograft model cell line was maintained in vitro using RPMI-1640 medium supplemented with 10% FBS in humidified cell culture incubator at 37° C. with standard 5% CO2 specs. The cells in an exponential growth phase were harvested and counted for tumor inoculation.
BALB/c nude mice (female) of 7-9 weeks old received a subcutaneous injection in the right front flank region with 5×10^6 tumor cells in 0.1 ml of PBS mixed with Matrigel (1:1) for tumor development. When tumors reached an average size of 100-200 mm^3, randomization was performed into 10 groups of 8 mice and treatment began. Randomization will be performed based on “Matched distribution” method (Study Director™ Software, version 3.1.399.19). The date of randomization will be denoted as day 0.
(§4) Electronic caliper measurement were performed 2 times a week. Daily observations for clinical signs, food and water consumption, behavioral changes, animals were weighed 2 times per week. […]
Observation and data collection. […] Tumor volumes are measured every 3-4 days in two dimensions using an caliper, and the volume data are expressed in mm3 using the formula: V=(L×W×W)/2, where V is tumor volume, L is tumor length (the longest tumor dimension) and W is tumor width (the longest tumor dimension perpendicular to L). […]

Data set [5] shares this test system. As to the kind of experiment: In vivo efficacy study, NCl—H446 xenograft (Example 31). Conditions: 5 mg/kg, single IV dose. Details: species or system BALB/c nude mice. The procedure:
as §3
BALB/c nude mice (female) of 7-9 weeks old received a subcutaneous injection in the right front flank region with 5×10^6 tumor cells in 0.1 ml of PBS mixed with Matrigel (1:1) for tumor development. When tumors reached an average size of 100-200 mm^3, randomization was performed into 6 groups of 8 mice and treatment began. Randomization will be performed based on “Matched distribution” method (Study Director™ Software, version 3.1.399.19). The date of randomization will be denoted as day 0.
as §4
Observation and data collection: After tumor cells inoculation, the animals are checked daily for morbidity and mortality. […] Tumor volumes are measured every 3-4 days in two dimensions using an caliper, and the volume data are expressed in mm3 using the formula: V=(L×W×W)/2, where V is tumor volume, L is tumor length (the longest tumor dimension) and W is tumor width (the longest tumor dimension perpendicular to L). […]

B1: cofetuzumab-4 (conjugate)
heavy: QVQLVQSGPEVKKPGASVKVSCKASGYTFTDYAVHWVRQAPGKRLEWIGVISTYNDYTYNNQDFKGRVTMTRDTSASTAYMELSRLRSEDTAVYYCARGNSYFYALDYWGQGTSVTVSS[left out - human IgG1 constant region]
light: EIVLTQSPATLSLSPGERATLSCRASESVDSYGKSFMHWYQQKPGQAPRLLIYRASNLESGIPARFSGSGSGTDFTLTISSLEPEDFAVYYCQQSNEDPWTFGGGTKLEIKRTVAAPSVFIFPPSDEQLKSGTASVVCLLNNFYPREAKVQWKVDNALQSGNSQESVTEQDSKDSTYSLSSTLTLSKADYEKHKVYACEVTHQGLSSPVTKSFNRGEC
As a reminder, the IC50 is the concentration that inhibits the measured activity by half. A low value points to greater potency in that assay. As to B1, in data set [1], the “DAR t = 3” value is reported as 3.91; the “DAR t = 7” value stood at 3.90; the “DAR t = 14” value is 3.88; the “DAR t = 14, % of t = 0” value is 99%. Moreover, the “DAR t = 0” value in data set [1] came to 3.93. Besides, in data set [2], the “DAR t = 1” value worked out at 3.78; the “DAR t = 3” value stood at 3.81; the “DAR t = 7” value came out at 3.57; the “DAR t = 7, % of t = 0” value is given as 92%. Further, the “DAR t = 0” value in data set [2] was 3.90. Besides, the IC50 in data set [3] amounted to 3.9 nM.

B2: cofetuzumab-3 (conjugate)
heavy: QVQLVQSGPEVKKPGASVKVSCKASGYTFTDYAVHWVRQAPGKRLEWIGVISTYNDYTYNNQDFKGRVTMTRDTSASTAYMELSRLRSEDTAVYYCARGNSYFYALDYWGQGTSVTVSS[left out - human IgG1 constant region]
light: EIVLTQSPATLSLSPGERATLSCRASESVDSYGKSFMHWYQQKPGQAPRLLIYRASNLESGIPARFSGSGSGTDFTLTISSLEPEDFAVYYCQQSNEDPWTFGGGTKLEIKRTVAAPSVFIFPPSDEQLKSGTASVVCLLNNFYPREAKVQWKVDNALQSGNSQESVTEQDSKDSTYSLSSTLTLSKADYEKHKVYACEVTHQGLSSPVTKSFNRGEC
For B2, in data set [1], the “DAR t = 3” value came to 3.88; the “DAR t = 7” value is listed as 3.80; the “DAR t = 14” value is on record as 3.80; the “DAR t = 14, % of t = 0” value amounted to 97%. In data set [1], the “DAR t = 0” value came to 3.91. For the same molecule, in data set [2], the “DAR t = 1” value is 3.89; the “DAR t = 3” value is reported as 3.88; the “DAR t = 7” value came to 3.86; the “DAR t = 7, % of t = 0” value is given as 99%. The “DAR t = 0” value in data set [2] is 3.90. The “in vivo efficacy (tumor volume over time)” value in data set [4] is listed as “tumor regression with a clear dose-response”. In data set [5], the “in vivo efficacy (tumor volume over time)” value is on record as “tumor growth inhibition, but also early regrowth of the tumor”.
